# Laboratory results published in PubChem BioAssay AID624330 (Southern Research Specialized Biocontainment Screening …, 2012).
# Among all 340,000 compounds or so, about 2,100 (0.62%) were called active. The shares of active, inactive and inconclusive entries below differ from those in the screen.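 The calls were made as follows: active = first-screen hits whose inhibition reached a set limit at any dose in the follow-up dose series; inconclusive = inhibition above the set first-screen limit but never retested; inactive = the rest.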
# Target: Rac GTPase-activating protein 1 (Homo sapiens) (UniProt Q9H0H5)
# Chain of UniProt Q9H0H5 (Q9H0H5 whole entry, looked up): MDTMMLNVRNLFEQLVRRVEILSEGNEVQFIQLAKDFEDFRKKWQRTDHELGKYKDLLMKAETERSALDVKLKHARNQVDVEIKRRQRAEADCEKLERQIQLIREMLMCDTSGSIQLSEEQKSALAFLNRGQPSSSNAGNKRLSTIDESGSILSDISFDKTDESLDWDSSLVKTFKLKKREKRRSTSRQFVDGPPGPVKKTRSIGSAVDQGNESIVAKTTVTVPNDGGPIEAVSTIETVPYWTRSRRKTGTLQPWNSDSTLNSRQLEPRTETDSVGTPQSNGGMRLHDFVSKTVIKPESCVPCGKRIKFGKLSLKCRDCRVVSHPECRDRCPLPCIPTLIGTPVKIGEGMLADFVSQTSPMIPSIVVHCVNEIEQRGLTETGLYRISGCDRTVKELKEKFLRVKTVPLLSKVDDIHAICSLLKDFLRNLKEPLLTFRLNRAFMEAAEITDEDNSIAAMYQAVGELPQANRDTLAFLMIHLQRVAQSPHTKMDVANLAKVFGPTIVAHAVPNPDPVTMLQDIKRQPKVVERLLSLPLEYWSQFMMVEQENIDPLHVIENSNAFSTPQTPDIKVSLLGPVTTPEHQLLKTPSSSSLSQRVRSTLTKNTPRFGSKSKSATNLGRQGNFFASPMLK
# Assay: blockers of MgcRacGAP-driven Rac1 GTP hydrolysis – biochemical, ADP Hunter fluorescence, primary and confirmatory, confirmation (AID 624330);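 also: fluorescence reports GDP produced by GAP-driven GTP hydrolysis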
# Conditions: MgcRacGAP-stimulated Rac1 GTP hydrolysis, at 30 µM, hits give high values, GST-tagged Rac1 F28L mutant substrate
row,Compound,inhibition
1,CCOc1cccc(=O)c2c(C)n(-c3ccc(C(=O)O)cc3)c(C)c12,inconclusive: 32.3%
2,C/C(=N/NC(=O)CNC(=O)/C=C/c1ccco1)c1ccc(Cl)cc1,inactive: 18.5%
3,COc1cccc(Nc2nc(-c3cccnc3)cs2)c1,inactive: 10.7%
4,CN(C)S(=O)(=O)c1cccc(-n2sc3ccccc3c2=O)c1,inconclusive: 33.7%
5,CCN1CCN(C(=S)c2ccc(Cl)cc2)CC1,inconclusive: 33.5%
6,CCOC(=O)N1CCC(NCCNC(=O)c2ccco2)CC1,inconclusive: 35.9%
7,COc1ccc(CCNC(=O)C2CCN(S(=O)(=O)c3ccc(OC)c(OC)c3)CC2)cc1OC,inactive: 1.02%
8,Cc1nccn1C(c1ccccc1)c1ccccc1,inconclusive: 34.2%
9,Cc1[nH]n(-c2ccccc2)c(=S)c1C=Nc1cccc([N+](=O)[O-])c1,inconclusive: 33.7%
10,CCCc1cc(=O)n2nc(N3CCC(C(=O)NCc4ccco4)CC3)sc2n1,inactive: 4.69%
11,Fc1ccc(N2CCN(Cc3ccccn3)CC2)cc1,inconclusive: 34.5%
12,O=C(N/N=C/c1ccc(O)c(O)c1)N/N=C/c1ccc(O)c(O)c1,inconclusive: 90.2%
13,COc1ccc(NC(=S)N(CCC(C)C)C2CCN(C(C)C)CC2)cc1Cl,inconclusive: 32%
14,Cc1cc([N+](=O)[O-])nn1CC(=O)NCc1ccc(Cl)cc1,inactive: 0.89%
15,Cc1ccc2c(c1)c1nnc(SCC(=O)Nc3ccc(N(C)C)cc3)nc1n2CC(=O)O,inconclusive: 34%
16,Cc1ccc(NC(=O)CSc2nn(-c3ccccc3)c(=S)s2)cc1S(=O)(=O)N(C)C,inactive: 2.35%
17,Cc1oc2c(O)c(O)ccc2c(=O)c1-c1cnn(-c2ccccc2)c1,inconclusive: 58.3%
18,c1ccc2cc3c(NCCN4CCOCC4)ccnc3cc2c1,inconclusive: 33.3%
19,COc1ccc(NC2CCCN(C(=O)CCc3ccncc3)C2)cc1OC (stereo not drawn),inconclusive: 32.5%
20,Cc1nc2c(C)cccc2cc1C(=O)N/N=C/c1ccc(O)cc1,inconclusive: 31.9%
21,CCN(/N=C/c1ccc(N(C)C)cc1)c1nc2ccccc2[nH]1,inconclusive: 32%
22,C=CCn1c(SCC(=O)NC2(C#N)CCCCC2)nnc1-c1ccncc1,inactive: -2.35%
23,COc1cc(CN2CCC(C(=O)N3CCC(C)CC3)CC2)cc(Br)c1O,inconclusive: 33.9%
24,COc1ccc(CN2CCN(Cc3ccco3)CC2)c(OC)c1,inconclusive: 31.9%

row,Compound,inhibition
1,C#CCOCCOCCOCCNc1nc(N2CCN(C(=O)CCCCCCCCCCNC(=O)[C@H](CCCCN)n3cc(CCO)nn3)CC2)nc(N2CCN(C(=O)CCCCCCCCCCNC(=O)[C@H](CCCCN)n3cc(CCO)nn3)CC2)n1,inconclusive: 63.2%
2,CCN1C(=O)c2cccc3c(N)ccc1c23,inconclusive: 106%
3,COc1ccc(C(OCC(O)CNCCc2ccccc2)c2ccc(OC)cc2)cc1 (stereo not drawn),inconclusive: 35.6%
4,CC/C(=N\NC(=O)CCC(=O)NCc1ccccc1)c1ccc(O)cc1,inconclusive: 32.5%
5,CN(CC(=O)Nc1ccccc1C(F)(F)F)C(=O)CN1C(=O)C2CCCCC2C1=O (stereo not drawn),inactive: 8.57%
6,CN(C(=O)c1ccco1)c1nc(-c2ccccc2)cs1,inactive: 8.31%
7,CCOc1ccc(CNc2ccc(N3CCCC3)cc2)cc1,inconclusive: 34.6%
8,CCC1(CC)C(=O)NC(=O)NC1=NCCc1ccc(O)cc1,inconclusive: 33.8%
9,COc1ccc(CNC(=O)Cn2cc([N+](=O)[O-])nc2C)cc1,inactive: 2.29%
10,Brc1ccc(CN2CCN(c3ccccc3)CC2)o1,inconclusive: 32%
11,C(=N\Nc1nc2ccccc2[nH]1)/c1cccs1,inconclusive: 34.9%
12,COc1ccc(O)c(/C=N/Nc2nc3ccccc3[nH]2)c1,inactive: 1.94%
13,O=c1cc(-c2ccc(O)c(O)c2)oc2c(C3O[C@H](CO)[C@@H](O)[C@H](O)[C@H]3O)c(O)cc(O)c12 (stereo partly drawn),inconclusive: 67.7%
14,O=C(Oc1csc(=S)n1C(=O)c1ccccc1)c1ccccc1,inconclusive: 65.1%
15,CC(OC(=O)CC1CCCCC1)C(=O)Nc1ccc(S(N)(=O)=O)cc1 (stereo not drawn),inactive: 1.14%
16,Cc1ccc(S(=O)(=O)Nc2nc3ccc(N)cc3s2)cc1,inconclusive: 42%
17,O=C(NNc1c2ccccc2nc2ccccc12)c1ccc(O)cc1,inconclusive: 50.1%
18,CN(C)/C=C1\NC(=S)N(c2ccc(Cl)cc2)C1=O,inactive: 17.9%
19,OC1CCN(Cc2ccc3ccccc3c2)CC1,inconclusive: 33.5%
20,Cc1ccc(NC(=O)CN2CCN(Cc3ccccc3)CC2)c(Br)c1,inconclusive: 35.5%
21,Nc1ccc2nc(CCCCCCc3nc4ccc(N)cc4[nH]3)[nH]c2c1,inconclusive: 68.5%
22,COc1ccc(-n2c(SC3CCOC3=O)nc3ccccc3c2=O)cc1OC (stereo not drawn),inactive: 7.23%
23,COc1ccc(CCN(C)C(=O)C2CCCN(C3CCN(Cc4ccccc4)CC3)C2)cc1OC (stereo not drawn),inconclusive: 34.5%
24,CCOc1cc(/C=N/NC(=O)c2cccnc2)ccc1O,inconclusive: 47.6%

row,Compound,inhibition
1,CCN(CC)c1ccc2nc3ccc(N)cc3[n+](-c3ccccc3)c2c1,inconclusive: 34.8%
2,COc1cc(/C=C2/C(=N)N3C=CSC3=NC2=O)ccc1OCCCOc1cc(C)ccc1C,inactive: 4.39%
3,COc1ccccc1NC(=O)Oc1ccc(NC(=O)c2ccco2)cc1,inconclusive: 39.4%
4,N#C/C(=C\c1ccc(O)c(O)c1)C(=O)N1CCCC1,inconclusive: 104%
5,O=C(NCc1ccco1)c1ccc(Oc2ccccc2)cc1,inactive: 1.55%
6,CN(C)c1cc(NC(=O)CN2CCOCC2)c2ccccc2n1,inactive: 0.97%
7,CCC(=O)Nc1cc(OC)c(NC(=S)Nc2ccccc2CC)cc1OC,inconclusive: 35.2%
8,CC(=O)Nc1ccc(S(=O)(=O)Nc2nc3ccccc3nc2Nc2ccc(N)cc2)cc1,inconclusive: 41.1%
9,COc1ccc(-n2c(=O)c3c4c(sc3n3c(=S)[nH]nc23)CCC4)cc1,inconclusive: 46.5%
10,Fc1ccccc1CNCc1ccc2c(c1)OCO2,inactive: 6.19%
11,CCOc1cc(/C=C/c2cc(C(=O)O)c3ccccc3n2)ccc1O,inconclusive: 34.8%
12,O=C(CN1CCOCC1)Nc1c2c(nc3ccccc13)N(Cc1ccccc1)CC2,inconclusive: 43%
13,Cc1ccc(C)n1-c1sccc1C(=O)O,inconclusive: 90.4%
14,Cc1cc(=O)oc2c(N)c(O)ccc12,inconclusive: 124%
15,COc1ccc(/C=C2\CC/C(=C\c3ccc(OC)c(OC)c3)C2=O)cc1OC,inactive: 4.49%
16,Cc1cc(C)n(CC(=O)N2c3ccccc3Sc3ccccc32)n1,inactive: 4.56%
17,COc1ccccc1/C=C/C(=O)OCc1nc2ccccc2c(=O)[nH]1,inactive: 7.19%
18,Clc1ccccc1OCCCCN1CCNCC1,inconclusive: 32.3%
19,CCOC(=O)c1c(NC(C)=O)sc2c(O)c(Br)cc(Br)c12,inconclusive: 39%
20,O=C1NC(=S)S/C1=C\c1cc(Cl)ccc1Cl,inconclusive: 32.7%
21,C=CC(=O)N1C/C(=C/c2ccc(Cl)cc2)C(=O)/C(=C\c2ccc(Cl)cc2)C1,inactive: 13.6%
22,COc1cc(SC)ccc1C(=O)N1CCN(c2ccc(O)cc2)CC1,inconclusive: 93.3%
23,COc1cc(CN2CCN(C(=O)CC(C)C)CC2)cc(OC)c1OC,inconclusive: 34.8%
24,Cc1ccc(NC(=O)CN2CCN(Cc3ccccc3)CC2)cc1F,inactive: 6.45%

row,Compound,inhibition
1,CCN(CC)c1ccc(NC(=O)c2cccnc2)cc1,inconclusive: 48.9%
2,Oc1ccc(O)c(-c2cnns2)c1,inconclusive: 34.1%
3,COc1ccc(CCNCc2c(-c3ccccc3)n(C)c3ccccc23)cc1,inconclusive: 35.3%
4,O=S(=O)(c1ccc(F)cc1)N1CCC(N2CCCCCC2)CC1,inconclusive: 34.8%
5,Oc1ccc(Nc2nc(Cl)nc(NCc3ccco3)n2)cc1,inconclusive: 109%
6,CC(=O)Nc1ccc(OC(=O)CC2SC(=O)NC2=O)cc1 (stereo not drawn),inconclusive: 32.5%
7,COc1ccc(-c2nnc(SC(=O)N3c4ccccc4Sc4ccccc43)o2)cc1,inconclusive: 98.6%
8,CCN(CC)c1nc2ccccc2c(N)c1-c1ccccc1,inconclusive: 36.9%
9,CC1CC(C)CN(C(=O)C(C)N(C)CC(=O)Nc2ccc(Cl)cc2)C1 (stereo not drawn),inconclusive: 33.6%
10,Cc1nc2sc(C(c3cccs3)N3CCC4(CC3)OCCO4)c(O)n2n1 (stereo not drawn),inactive: 1.65%
11,C=CCSc1nc2sc(C)c(C)c2c(=O)n1N,inactive: 2.09%
12,O=C1NN(c2ccc(Cl)c(Cl)c2)C(=O)/C1=C/c1ccc(-c2ccccc2C(=O)O)o1,inconclusive: 32.6%
13,Cc1ccc(N)cc1NC(=O)CN1CCOCC1,inactive: 9.26%
14,COc1cc(/C=N/Nc2nc3ccccc3o2)cc(OC)c1O,inconclusive: 31.9%
15,O/N=C(\Cc1cscn1)c1ccc(O)cc1O,inconclusive: 31.9%
16,C=C(CN(C)C)C(=O)c1cc(C)ccc1C,inconclusive: 44.9%
17,O=[N+]([O-])c1ccccc1CNC1CCCCCC1,inconclusive: 33.1%
18,Cc1cc(OCCCCOc2ccc(S(N)(=O)=O)c(C)c2)ccc1S(N)(=O)=O,inactive: 6.93%
19,Clc1ccc(Nc2nc(-c3ccncc3)cs2)cc1,inactive: 9.41%
20,CC/C(=C\C(=O)c1ccncc1)Nc1ccc(O)cc1,inconclusive: 84.1%
21,COc1ccc(CCNc2nc(-c3ccc(O)cc3)cs2)cc1OC,inconclusive: 32%
